# Results taken from publication PMC4336329 (PLoS ONE, 2015).
# Out of some 310,000 compounds screened, about 14,000 (4.5%) showed an effect of 50% or more. Effects have a minus sign here. The list shows a part of the results. Where a SMILES comes first, the peptide text is derived from it. The star is where a group is joined. Boc = CC(C)(C)OC(=O)*
# Target: human ether-à-go-go-related gene (hERG) potassium channel (human, UniProt Q12809)
# Test: primary screen, population patch clamp on CHO cells stably expressing hERG
# 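Also: peak tail current of the secondary pulse compared with the same well before compound.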
# Sequence of human ether-à-go-go-related gene (hERG) potassium channel (Q12809 whole entry, looked up): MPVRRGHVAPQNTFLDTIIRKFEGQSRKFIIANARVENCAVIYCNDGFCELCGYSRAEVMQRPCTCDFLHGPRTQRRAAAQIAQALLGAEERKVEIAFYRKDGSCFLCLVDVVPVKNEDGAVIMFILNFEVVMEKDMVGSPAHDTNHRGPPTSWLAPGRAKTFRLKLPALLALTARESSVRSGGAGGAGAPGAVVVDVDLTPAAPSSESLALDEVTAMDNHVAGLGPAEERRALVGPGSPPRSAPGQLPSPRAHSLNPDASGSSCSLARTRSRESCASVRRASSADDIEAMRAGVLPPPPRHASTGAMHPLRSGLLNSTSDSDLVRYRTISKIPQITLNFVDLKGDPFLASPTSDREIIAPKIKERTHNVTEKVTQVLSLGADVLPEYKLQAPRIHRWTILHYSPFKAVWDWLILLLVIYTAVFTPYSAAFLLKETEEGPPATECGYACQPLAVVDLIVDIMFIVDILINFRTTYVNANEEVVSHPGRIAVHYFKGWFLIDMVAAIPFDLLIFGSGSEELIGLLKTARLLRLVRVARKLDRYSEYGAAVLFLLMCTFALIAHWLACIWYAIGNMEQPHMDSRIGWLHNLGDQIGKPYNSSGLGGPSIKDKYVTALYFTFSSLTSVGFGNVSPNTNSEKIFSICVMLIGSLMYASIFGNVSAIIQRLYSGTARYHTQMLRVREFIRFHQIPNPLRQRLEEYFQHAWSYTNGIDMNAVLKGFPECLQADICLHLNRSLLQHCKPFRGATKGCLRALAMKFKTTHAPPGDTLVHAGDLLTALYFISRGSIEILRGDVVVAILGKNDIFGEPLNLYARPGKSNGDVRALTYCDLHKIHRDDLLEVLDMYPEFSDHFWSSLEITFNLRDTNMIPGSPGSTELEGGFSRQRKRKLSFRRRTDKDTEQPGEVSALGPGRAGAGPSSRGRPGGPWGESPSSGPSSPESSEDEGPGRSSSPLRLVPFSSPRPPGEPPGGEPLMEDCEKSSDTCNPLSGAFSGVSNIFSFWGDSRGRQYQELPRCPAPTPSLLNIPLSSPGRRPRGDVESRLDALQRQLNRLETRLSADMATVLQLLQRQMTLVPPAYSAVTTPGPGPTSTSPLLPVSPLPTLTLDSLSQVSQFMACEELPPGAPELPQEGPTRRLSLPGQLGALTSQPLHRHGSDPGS
row,Structure (SMILES),"hERG current change (%, negative = inhibition) at 10uM [%]"
1,CN(Cc1ccccc1)S(=O)(=O)c1ccc(NC(=S)NC(=O)C2CCCCC2)cc1,-0.702
2,Cc1cc(C)n2nc(-c3ccc(Br)cc3)cc2n1,13.3
3,CCOC(=O)C1=C(O)/C(=C\c2cc(C)n(-c3ccccc3F)c2C)N=C1C,6.21
4,COCCNC(=O)CSc1c2c(nc3ccc(Cl)cc13)CCCC2,-6.9
5,COc1ccc2cc3cc(C(=O)N(C)C4CCCCC4)oc3nc2c1,-5.7
6,CCOc1ccccc1/C=C(/NC(=O)c1ccccc1)C(=O)NCC(=O)O,9.68
7,O=C1COc2ccc(C(=O)COC(=O)Cn3cnc4ccccc43)cc2N1,-5.03
8,Cn1c(=O)oc2cc(S(=O)(=O)NCCC(=O)NCc3ccc(F)cc3)ccc21,12.5
9,CCCCc1nn(-c2cc(Cl)ccc2OC)c2c1C(=O)CCC2,-26.3
10,CCCCNC(=S)N/N=C/c1cccc(OCC)c1O,6.37
11,CCC1CCCCN1C(=O)CSc1nnc(CNC(=O)c2c(F)cccc2Cl)o1 (stereo not drawn),10.7
12,Cc1ccc(-c2[nH]ncc2/C=N/n2c(C)nc3ccccc3c2=O)cc1,4.46
13,O=C(COC(=O)Cc1n[nH]c(=O)c2ccccc12)Nc1cccc(C(F)(F)F)c1,-13.5
14,CSCCC(NC(=O)OC(C)(C)C)C(=O)Oc1ccc2c(=O)c(-c3ccc4c(c3)OCCO4)coc2c1 (stereo not drawn),3.94
15,COc1ccc(C(CNC(=O)C(=O)Nc2ccc3c(c2)OCCO3)N2CCN(C)CC2)cc1 (stereo not drawn),-45.1
16,CCOc1ccc(S(=O)(=O)N/N=C(\C)c2ccc(OC)cc2OC)cc1,-3.21
17,O=C1CC(C(=O)Nc2nccs2)C(c2ccccc2)O1 (stereo not drawn),-5.66
18,CCc1nnc(NC(=O)C2CC(=O)N(CCc3ccccc3)C2)s1 (stereo not drawn),8.08
19,CC1=NN(C(=O)c2ccccc2Br)C(O)(c2ccc(Cl)cc2)C1 (stereo not drawn),18.7
20,CCOc1ccc(-n2nc(C(=O)NCCOC)c3ccccc3c2=O)cc1,8.27
21,COc1ccc(-c2cc(C(F)(F)F)n3nc(C(=O)N4CCN5CCCC5C4)cc3n2)cc1OC (stereo not drawn),-64.4
22,CC(=O)Nc1ccccc1NC(=O)C/C(C)=N/NC(=O)Cc1cccc2ccccc12,10.8

row,Structure (SMILES),"hERG current change (%, negative = inhibition) at 10uM [%]"
1,Cc1ccc(NC(=O)c2ccccn2)cc1S(=O)(=O)N1CCOCC1,-3.83
2,CC(=O)N(c1ccccc1)c1c(F)c(F)c(F)c(F)c1F,0.886
3,COc1ccc(/C=C2/N=C(SC3CCOC3=O)N(c3cccc(OC)c3)C2=O)cc1 (stereo not drawn),0.303
4,CCOc1ccc(NC(=S)Nc2cccnc2)cc1,7.16
5,CC(=O)c1cc(Cl)ccc1OCC(=O)Nc1cccc(S(=O)(=O)N2CCCC2)c1,18.6
6,CCOC(=O)C1(CC)NC(c2ccco2)C2C(=O)N(CC)C(=O)C21 (stereo not drawn),14.2
7,COc1ccc(CNC(=O)OCCN2CCN(S(=O)(=O)c3ccc(C)cc3)CCC2=O)cc1,-35.9
8,CC(=O)Nc1ccc(NC(=O)Cn2nc([N+](=O)[O-])c(Br)c2C)cc1,2.91
9,N#Cc1cnc(Nc2ccc(F)cc2)nc1N,-2.18
10,Cc1ccnc(N/N=C/c2ccccc2)n1,-0.0572
11,Oc1cc(Cc2ccccc2)cnc1CN1CCOCC1,-16.9
12,CN(Cc1ccccc1)c1ccc(N2C(=O)CCCC2=O)cc1[N+](=O)[O-],6.5
13,O=C(O)c1cc2c(N3CCC(Cc4ccccc4)CC3)ncnc2s1,14.8
14,CCCc1cc(=O)n(-c2nc3ccccc3s2)[nH]1,11.2
15,O=c1ccnc(Sc2ncccc2[N+](=O)[O-])[nH]1,-11
16,CCCN=Cc1c(CCC)[nH]n(-c2nc3ccccc3s2)c1=O,-66.9
17,COc1cc(-c2nc3cnccn3c2NC(C)(C)CC(C)(C)C)ccc1O,7.94
18,O=C(NC(Nc1ncccn1)C(=O)c1ccccc1)c1ccccc1 (stereo not drawn),-36.1
19,CCOc1ccccc1NC(=O)Nc1ccsc1C(=O)OC,-62
20,COCCCN(CC(=O)Nc1ccc(N2CCOCC2)cc1)S(=O)(=O)c1ccccc1,9.28
21,COC(=O)c1cnc(Nc2cc(C)ccc2OC)c2ccccc12,18.1
22,O=C(c1cc2sccc2n1Cc1ccccc1)N1CCCc2ccccc21,1.8

row,Structure (SMILES),"hERG current change (%, negative = inhibition) at 10uM [%]"
1,O=S(=O)(Nc1ccccn1)c1ccc(-n2cccn2)cc1,21.3
2,Cc1cc(=O)[nH]c(SCc2nc3ccccc3c(=O)n2-c2ccccc2C)n1,24.9
3,CSCCC(NC(=O)c1ccccc1)C(=O)N1CCN(C(c2ccccc2)c2ccccc2)CC1 (stereo not drawn),4.36
4,O=C(N[C@@H](c1ccccc1)[C@@H]1C[C@H]1C(=O)O)OCc1ccccc1,15.1
5,CC(=O)NC1(C(F)(F)F)C(=O)Nc2c1c(=O)[nH]c(=O)n2-c1ccccc1 (stereo not drawn),11.1
6,CCOC(=O)[C@H]1[C@H]2COc3ccc(OC)cc3[C@H]2N2C(=O)CNC(=O)[C@@]12C,1.75
7,CCn1c(CSCc2ccc(Cl)cc2)nnc1SCC(=O)Nc1cccc(C(=O)O)c1,-10.2
8,N=C(N=C(N)N)N1CCc2ccccc21,17.4
9,O=C(O)c1nccnc1C(=O)Nc1ccc(S(=O)(=O)N2CCOCC2)cc1,10.7
10,C=CCn1c(C)c(C(C)=O)cc(NC(=O)c2ccccc2)c1=O,-11
11,O=C(Nc1ccc(C(=O)NCc2ccc(F)cc2)cc1)C1=CSCCO1,4.17
12,Cc1cccc(C(=O)N2CCc3cc(-c4nc(NC(=O)Cn5nnc6ccccc6c5=O)sc4C)ccc32)c1,10.3
13,CCc1nnc(N/N=C/c2cccs2)n1N.Cl,3.35
14,CC1=NN(C(N)=S)C(=O)C1N=Nc1cccc(Cl)c1 (stereo not drawn),17.2
15,O=C(NC(=S)NC(CO)c1ccccc1)c1ccc(F)cc1 (stereo not drawn),0.0916
16,Cc1ccc(S(=O)(=O)N2CCCC2C(=O)OCc2ccccc2)cc1 (stereo not drawn),-12.8
17,Cc1cc(NC(=O)CSc2nnc3ccccn23)no1,-3.69
18,Cn1c(C(=O)N[C@@H](C(=O)O)c2ccccc2)cc2cc(F)ccc21,25.1
19,CCC(C)(C)n1nnnc1C(C(C)C)N1CCN(C)CC1.Cl (stereo not drawn),6.63
20,CCC(=O)c1ccc(OCC(=O)NCCc2ccccn2)cc1,11
21,N#Cc1cc(Cl)c(N2CCOCC2)cc1C#N,-9.59
22,Cc1ccc(N2CCN(C(=O)C3CCCN(c4ncnc5c4nc4n5CCCCC4)C3)CC2)c(C)c1 (stereo not drawn),-7.35

row,Structure (SMILES),"hERG current change (%, negative = inhibition) at 10uM [%]"
1,Cc1[nH]c2ccc(C(=O)N3CCN(c4ccccn4)CC3)cc2c1C,-2.92
2,Cc1ccc(NC(=S)N(CCN2CCCCC2)Cc2ccco2)cc1Cl,-51.1
3,O=C1CC(c2cccc([N+](=O)[O-])c2)c2c(ccc3ccccc23)N1 (stereo not drawn),10.3
4,O=C(Nc1ccc(Cl)cc1Cl)C1=Cc2ccccc2OC1,5.71
5,COc1ccc(CNC(=O)Nc2ccc(OC)cc2)cc1,10.9
6,COc1cc(C(=O)NCCCc2nc3ccccc3n2Cc2cc(C)ccc2C)cc(OC)c1OC,-33.6
7,CCCCn1c(=NC(=O)c2ccco2)c(C(=O)OCC)cc2c(=O)n3ccccc3nc21,-71.7
8,C=CCSC1=NC(=O)/C(=C/c2cccs2)S1,-16.5
9,Cc1ccc(OCCNS(=O)(=O)c2ccc(N3CCCC3=O)cc2)cc1C,0.366
10,CC(C)(C)OC(=O)NC(Cc1ccccc1)C(=O)N1CCCC1C(=O)O (stereo not drawn) (Boc-Phe-Pro-OH; configuration not given here),22.8
11,O=C(NCCc1nc(-c2ccccc2)cs1)c1ccc(Br)cc1,-7.36
12,O=C(CNC(=O)c1cccs1)N/N=C/c1ccccc1[N+](=O)[O-],-2.78
13,Cc1cc(C)cc(NCc2ccncc2)c1,-11.1
14,COc1ccc(CCNC(=O)[C@@H](NC(N)=O)C(C)C)cc1,27.1
15,CCN1C(=O)C(=Cc2cc(C)n(C3CC3)c2C)C(=O)N(CC)C1=S,7.68
16,COc1ccc(CNC(=O)COc2ccccc2C(=O)c2cnn(-c3ccccc3)c2)cc1OC,-41
17,CCc1ccc(NC(=O)Nc2cc(C(=O)NCC3CCCO3)ccc2N2CC3CC(C2)c2cccc(=O)n2C3)cc1 (stereo not drawn),-17.6
18,COc1ccc(C(=O)N2CCN(c3ccccn3)CC2)cc1,3.55
19,CCCNC(=O)c1noc2c1CCc1cc(OC)ccc1-2,-2.24
20,CCCCN(C(=O)c1cc2ccccc2o1)c1c(N)n(CCC)c(=O)[nH]c1=O,-5.27
21,Cc1cc(N2CCN(C(=O)c3ccco3)CC2)nc(-c2ccccc2)n1,-65.4
